# Measured values taken from the supplement of paper PMC10369915.
# This is one part of the list. No stated cut-off is given here; in the data, active = 3.2 or more and inactive = the rest. Most of these values are background signal.
# Tests used:
# Assay in all cases: enrichment score (SH2-bound / input frequency) (ratio); bacterial display of known human phosphotyrosine sites (pTyr-Var adds point mutants) read by sequencing; higher = stronger binding; tyrosines were phosphorylated by kinases first
# Details in all cases: peptide library: pTyr-Var
# SHP2 C-SH2 domain E139D = biological target: SHP2 C-SH2 domain E139D
# [1] = biological target: SHP2 C-SH2 domain wild-type
# SHP2 N-SH2 domain L43F = biological target: SHP2 N-SH2 domain L43F
# SHP2 N-SH2 domain T42A = biological target: SHP2 N-SH2 domain T42A
# SHP2 N-SH2 domain T52S = biological target: SHP2 N-SH2 domain T52S
# [2] = biological target: SHP2 N-SH2 domain wild-type
# 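Further: displayed peptides selected on beads carrying the immobilized SH2 domain, with library peptides lacking any tyrosine serving as negative controls.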
Binder,enrichment score (SHP2 C-SH2 domain E139D),enrichment score [1],enrichment score (SHP2 N-SH2 domain L43F),enrichment score (SHP2 N-SH2 domain T42A),enrichment score (SHP2 N-SH2 domain T52S),enrichment score [2]
REHTVYWEPRK [MAGEA4_Y240_G241W],inactive: 1.2,inactive: 1.59,inactive: 0.832,inactive: 1.03,inactive: 0.851,inactive: 1.41
RRGTGYTLSLP [MAGEC3_Y152],inactive: 0.319,inactive: 0.316,inactive: 0.263,inactive: 0.331,inactive: 0.203,inactive: 0.359
RRGTGYTLPLP [MAGEC3_Y152_S155P],inactive: 0.235,inactive: 0.247,inactive: 0.319,inactive: 0.415,inactive: 0.291,inactive: 0.373
WGLCSYFETSK [MAGED2_Y448_R446C_YF],inactive: 1.17,inactive: 1.66,inactive: 1.1,inactive: 1.02,inactive: 1.09,inactive: 1.09
WGLRSYFETSK [MAGED2_Y448_YF],inactive: 2.89,inactive: 2.41,inactive: 2.75,inactive: 2.78,inactive: 2.86,inactive: 2.17
GLRSYYETSKM [MAGED2_Y449],inactive: 1.21,inactive: 0.862,inactive: 0.921,inactive: 0.834,inactive: 0.989,inactive: 0.826
GLCSFYETSKM [MAGED2_Y449_R446C_YF],inactive: 1.17,inactive: 1.02,inactive: 0.917,inactive: 1.02,inactive: 1.11,inactive: 1.37
GLRSFYETSKM [MAGED2_Y449_YF],inactive: 0.78,inactive: 0.876,inactive: 0.812,inactive: 0.465,inactive: 0.79,inactive: 0.702
QRKRAYVEIEF [MAK16_Y282_YF],inactive: 0.46,inactive: 0.423,inactive: 1.75,active: 4.11,inactive: 1.64,inactive: 0.604
KVMANYMYKAG [MAML2_Y513],inactive: 1.02,inactive: 0.929,inactive: 0.871,inactive: 0.799,inactive: 0.911,inactive: 1.05
KVMANYMFKAG [MAML2_Y513_YF],inactive: 1.23,inactive: 1.16,inactive: 1.18,inactive: 1.06,inactive: 1.34,inactive: 1.26
MANYMYKAGPS [MAML2_Y515],inactive: 0.692,inactive: 0.859,inactive: 0.812,inactive: 0.63,inactive: 0.754,inactive: 0.684
MANFVYKAGPS [MAML2_Y515_M514V_YF],inactive: 1.26,inactive: 0.919,inactive: 1.06,inactive: 0.94,inactive: 1.08,inactive: 0.985
LQFRNYQQLFD [MAN2A1_Y442_K440R],inactive: 0.891,inactive: 0.734,inactive: 0.649,inactive: 0.989,inactive: 0.576,inactive: 0.735
TNGFTCGSSHQ [MANEA_Y331_Y331C],inactive: 0.664,inactive: 0.64,inactive: 0.717,inactive: 0.548,inactive: 0.603,inactive: 0.842
HYECKYVINAI [MAOA_Y268],inactive: 0.653,inactive: 1.4,inactive: 0.844,inactive: 0.854,inactive: 1.04,inactive: 1.27
HYEFKYVINAI [MAOA_Y268_C266F],inactive: 1.41,inactive: 1.72,inactive: 1.17,inactive: 1.08,inactive: 0.975,inactive: 2.09
ALEHKYWALGQ [MAP1A_Y1555_Q1553H],inactive: 0.967,inactive: 0.901,inactive: 0.918,inactive: 1.07,inactive: 0.778,inactive: 1.01
WGTAEYDSVVA [MAP1A_Y1883],inactive: 0.869,inactive: 0.826,inactive: 0.66,inactive: 0.702,inactive: 0.536,inactive: 0.783
